# Results from PubChem BioAssay AID651820 (National Center for Advancing Translational Sciences (NCATS), 2012).
# About 12,000 (3.5%) of roughly 340,000 compounds were called active. The inconclusive results got no clear call from the source; some entries with a clear call stand among them for comparison. Calls follow the shape of the dose curve; as a rule, active = well fitted inhibition curve with a large enough effect; inconclusive = small, poorly fitted or top-dose-only effect, or another doubt; inactive = no such curve, though single readings can be large or run the other way. No potency is given beside an inconclusive call; the fits are too rough.
# Assay: qHTS Assay for Inhibitors of Hepatitis C Virus (HCV)
# Conditions: Huh7.5.1 HCVcc-Cre (HCVcc is cell-culture hepatitis C virus) infection, luciferase reporter, 44 h; activity change, negative = inhibition: at 41.8 µM (top of the series)
# Outline: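 Antiviral activity was scored by luciferase reporter output from cells infected with HCVcc-Cre (~0.5 moi) in presence of compound, 44 h infection period, cells seeded 1,000/well 4 h prior.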
# % is scaled to controls: 0 for no effect and ±100 for the full control effect; potency is read from the fitted curve at half-maximal effect; tags tell the direction and shape of the fitted curve.
SMILES,Potency,"activity change, negative = inhibition"
CC(=O)c1cccc(NCC(=O)Nc2cc(S(=O)(=O)N3CCCCC3)ccc2C)c1,active: 11.2 µM,
Cc1ccc2nsnc2c1NC(=O)c1ccc([N+](=O)[O-])o1,"inconclusive [inhibitor, single point]",
Cc1ccc(C2(c3ccc(C)cc3)NC(=O)N(Cc3c(C)noc3C)C2=O)cc1,"inconclusive [inhibitor, single point]",
CCC(=O)NC(=Nc1nc2ccccc2s1)NC(=O)CC,"inconclusive [inhibitor, single point]",
C=CCSc1nc(N)c(C(=O)Nc2ccccc2C)cc1C(N)=O,"inconclusive [inhibitor, single point]",
COc1ccc(N2CCN(c3nc4c(C)cccn4c(=O)c3/C=C(\C#N)C(N)=O)CC2)cc1,inactive,
Oc1cccc(/C=N/N2CCN(C3c4ccccc4-c4ccccc43)CC2)c1,"inconclusive [inhibitor, single point]",
Cc1n[nH]c(C)c1CNCc1c(C(=O)N2CCCCCCC2)nc2ccc(Cl)cn12,inactive,
CC(=O)Nc1ccc(S(=O)(=O)NCCSCc2ccccc2Cl)cc1,"inconclusive [inhibitor, single point]",
Cc1ccsc1CN(C)CC(=O)Nc1ccccc1C(=O)NC1CC1,"inconclusive [inhibitor, single point]",
CC(=O)Nc1ccc(NC(=O)CSc2ccc([N+](=O)[O-])cn2)cc1,inactive,
CCN(CC)C(=O)c1cccc(C)c1,"inconclusive [inhibitor, single point]",
Cn1nc(NC(=O)C(F)(F)F)c2ncc(-c3ccc(Cl)cc3)nc21,"inconclusive [inhibitor, single point]",
CCc1nc(Nc2cccc(O)c2)c2oc3ccccc3c2n1,"inconclusive [inhibitor, single point]",
COc1cccc(OC)c1C(=O)Nc1nc(-c2ccccc2)cs1,"inconclusive [inhibitor, single point]",
CCOc1cc(Br)cc(C(c2c(C(=O)O)[nH]c3ccccc23)c2c(C(=O)O)[nH]c3ccccc23)c1O,"inconclusive [inhibitor, single point]",
CCN(C(=O)CO/N=C/c1ccc(OC)cc1OC)c1c(N)n(Cc2ccccc2)c(=O)[nH]c1=O,"inconclusive [inhibitor, partial curve, poor fit]",
C=C[C@@H]1c2ccccc2N(S(=O)(=O)c2ccc(C)cc2)[C@H](c2ccccc2)C1(C#N)C#N,inactive,
CCOC(=O)C1(Cc2ccccc2C(F)(F)F)CCN(Cc2ccc(COC)o2)CC1,active: 8.91 µM,
Cc1cccc(NC(=O)Cn2nnc3sc4c(c3c2=O)CC(C)(C)OC4)c1,"inconclusive [inhibitor, single point]",
CCN(CCNCC(O)COc1ccccc1C(C)C)c1cccc(C)c1 (configuration not stated),active: 12.6 µM,
COc1cc(OC)cc(-c2c(-c3cccs3)c3cc(Br)ccc3n2C)c1,"inconclusive [inhibitor, partial curve]",
O=C(NC1CC1)c1cc(=S)[nH]c2ccccc12,"inconclusive [inhibitor, partial curve]",

SMILES,Potency,"activity change, negative = inhibition"
O=C(Nc1ccccc1N1CCOCC1)c1csc2c1CCCC2,"inconclusive [inhibitor, partial curve]",
O=C(Nc1cccc(C(F)(F)F)c1)c1ccc(N2CCNCC2)c([N+](=O)[O-])c1,active: 12.6 µM,
C=CCn1c(SCC(=O)N2CCN(c3ccccc3)CC2)nc2c([nH]c3ccccc32)c1=O,"inconclusive [inhibitor, full curve, poor fit]",
CC(C)(C)c1ccc(OCCC(=O)OCC(=O)Nc2ccc(N3CCOCC3)cc2)cc1,"inconclusive [inhibitor, full curve, poor fit]",
COc1ccc(-c2cc(C(=O)N3CCN(c4ccccc4)CC3)c3ccccc3n2)cc1,"inconclusive [inhibitor, partial curve, poor fit]",
COc1ccc2oc(C(=O)NCc3cc(OC)c(OC)cc3OC)c(C)c2c1,active: 15.8 µM,
CC1SC(c2ccccc2)N(CC(O)c2ccc([N+](=O)[O-])cc2)C1=O (configuration not stated),inactive,
CCOC(=O)c1cnc(-n2nc(C)cc2C)nc1NNc1cc(C)nc(-c2ccccc2)n1,"inconclusive [inhibitor, full curve]",
CCOC(=O)c1oc2ccccc2c1NC(=O)CCl,inactive,
Cc1cccc(C)c1OCc1nc2ccccc2c(=O)n1/N=C/c1c[nH]c2ccccc12,"inconclusive [inhibitor, single point]",
CCN(CC(=O)Nc1ccccc1C(F)(F)F)C(=O)/C=C/c1ccc(Cl)c([N+](=O)[O-])c1,"inconclusive [inhibitor, single point]",
COc1ccc(OC)c(CNc2ncc(-c3ccc(F)cc3)n2C)c1,inactive,
Cc1ccc(-n2ccnc(SCC(=O)NCCc3ccccc3)c2=O)cc1F,,inconclusive: -108% [inhibitor]
CCOc1ccc(NC(=O)CN(C)C(=O)c2cn(-c3ccc(F)cc3)nc2-c2cccc(OC)c2)cc1OCC,"inconclusive [inhibitor, single point]",
COc1ccc(OC)c(NC(=O)c2cc3ccccc3cc2OC)c1,"inconclusive [inhibitor, full curve]",
COc1ccc(CCNC(=S)Nc2cc(C)ccc2C)cc1,"inconclusive [inhibitor, single point]",
CC1CCN(C(=O)c2[nH]cnc2C(=O)N[C@@H](C)C(=O)OCc2ccccc2)CC1,active: 3.55 µM,
CC(=O)N1CCN(C(=O)c2ccc(OC3CCN(Cc4ccccn4)CC3)cc2)CC1,inactive,
COc1ccc([C@H]2Cc3cccc(O)c3C(=O)O2)cc1O,"inconclusive [inhibitor, partial curve]",
Cc1ccc(NC(=O)c2ccc(N3C(=O)C4CC=C(Cl)CC4C3=O)cc2)cc1 (configuration not stated),"inconclusive [inhibitor, partial curve]",
CCC1=C2CC[C@H]3C(=O)N(CC(=O)OC)C(=O)[C@H]3[C@H]2[C@@]2(C)C(=NCC(=O)OC)OC(=O)N2C1=O,inactive,
C=C(C)c1nc(Oc2ccccc2)nc(Oc2ccccc2)n1,"inconclusive [inhibitor, single point]",
CN(c1ccccc1)S(=O)(=O)c1cccc(NC(=O)Cn2cnc3ccccc3c2=O)c1,active: 2.82 µM,

SMILES,Potency,"activity change, negative = inhibition"
Cc1onc(C(=O)N2CCC(Cc3ccccc3)CC2)c1[N+](=O)[O-],"inconclusive [inhibitor, single point]",
COc1ccc(OC)c(-c2cc(C(=O)N3CCN(c4ncccn4)CC3)c3ccccc3n2)c1,"inconclusive [inhibitor, single point]",
CCNS(=O)(=O)c1ccc(NC(=O)c2ccc(Cn3cc(Br)cn3)o2)cc1,"inconclusive [inhibitor, single point]",
CCOC(=O)c1ccccc1NC(=O)COC(=O)c1ccc(OCC(=O)N2CCOCC2)c(OCC)c1,"inconclusive [inhibitor, full curve]",
COc1ccccc1CN1CCN(Cc2ccco2)CC1,inactive,
Cc1ccc(NC(=O)c2cc(N3C(=O)C4CC=CCC4C3=O)ccc2N2CCCCC2)cc1 (configuration not stated),"inconclusive [inhibitor, partial curve]",
Cc1cccc(NC(=S)NCc2ccc(F)cc2)c1C,"inconclusive [inhibitor, partial curve, poor fit]",
N=c1n(CCN2CCCC2)c2ccccc2n1CC(O)c1ccc(Cl)c(Cl)c1 (configuration not stated),active: 11.2 µM,
NC(=O)CC(NC(=O)c1ccccc1)c1ccc(NCC2CC2)c([N+](=O)[O-])c1 (configuration not stated),"inconclusive [inhibitor, partial curve]",
CCOc1ccc(-c2nnn(CC(=O)c3ccc4c(c3)OCCO4)n2)cc1,"inconclusive [inhibitor, single point]",
COc1cccc(-n2cnc3sc(C)c(C)c3c2=O)c1,inactive,
CC[n+]1c(C)cc2c(sc3ccccc32)c1C,"inconclusive [inhibitor, full curve]",
O=C(c1ccc(F)cc1)C1CCN(Cc2ccc(F)cc2)CC1,"inconclusive [inhibitor, single point]",
Nc1nc(N)c2[nH]cnc2n1,active: 6.31 µM,
Cc1ccc2cc3cc(C(=O)NCCN4CCOCC4)oc3nc2c1,inactive,
CC1(C)CC[C@]2(C(=O)n3ccnc3)CC[C@]3(C)[C@H](C(=O)C=C4[C@@]5(C)C=C(C#N)C(=O)C(C)(C)[C@@H]5CC[C@]43C)[C@@H]2C1,"inconclusive [inhibitor, full curve]",
Cc1cc2occ(CC(=O)Nc3nccs3)c2cc1C(C)C,"inconclusive [inhibitor, partial curve]",
Cc1ccc(Sc2ccc(/C=N/O)cc2[N+](=O)[O-])cc1,active: 11.2 µM,
Cc1ccc(NC(=O)CN(C)S(=O)(=O)c2cccc3cccnc23)cc1C,"inconclusive [inhibitor, partial curve]",
CN1CCc2c(OCC(=O)N3CCC(Cc4ccccc4)CC3)cccc2C1=O,"inconclusive [inhibitor, partial curve]",
COc1cc(/C=N/N2CCN(C3c4ccccc4-c4ccccc43)CC2)ccc1O,"inconclusive [inhibitor, partial curve]",
